Out of some 310,000 compounds screened, about 14,000 (4.5%) showed an effect of 50% or more. The effect is printed as a negative number. The list shows a part of the results.
Target: human ether-à-go-go-related gene (hERG) potassium channel (human, UniProt Q12809)
Test: primary screen, population patch clamp on CHO cells stably expressing hERG
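Note: peak tail current of the secondary pulse compared with the same well before compound.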

human ether-à-go-go-related gene (hERG) potassium channel, sequence (Q12809 whole entry, looked up): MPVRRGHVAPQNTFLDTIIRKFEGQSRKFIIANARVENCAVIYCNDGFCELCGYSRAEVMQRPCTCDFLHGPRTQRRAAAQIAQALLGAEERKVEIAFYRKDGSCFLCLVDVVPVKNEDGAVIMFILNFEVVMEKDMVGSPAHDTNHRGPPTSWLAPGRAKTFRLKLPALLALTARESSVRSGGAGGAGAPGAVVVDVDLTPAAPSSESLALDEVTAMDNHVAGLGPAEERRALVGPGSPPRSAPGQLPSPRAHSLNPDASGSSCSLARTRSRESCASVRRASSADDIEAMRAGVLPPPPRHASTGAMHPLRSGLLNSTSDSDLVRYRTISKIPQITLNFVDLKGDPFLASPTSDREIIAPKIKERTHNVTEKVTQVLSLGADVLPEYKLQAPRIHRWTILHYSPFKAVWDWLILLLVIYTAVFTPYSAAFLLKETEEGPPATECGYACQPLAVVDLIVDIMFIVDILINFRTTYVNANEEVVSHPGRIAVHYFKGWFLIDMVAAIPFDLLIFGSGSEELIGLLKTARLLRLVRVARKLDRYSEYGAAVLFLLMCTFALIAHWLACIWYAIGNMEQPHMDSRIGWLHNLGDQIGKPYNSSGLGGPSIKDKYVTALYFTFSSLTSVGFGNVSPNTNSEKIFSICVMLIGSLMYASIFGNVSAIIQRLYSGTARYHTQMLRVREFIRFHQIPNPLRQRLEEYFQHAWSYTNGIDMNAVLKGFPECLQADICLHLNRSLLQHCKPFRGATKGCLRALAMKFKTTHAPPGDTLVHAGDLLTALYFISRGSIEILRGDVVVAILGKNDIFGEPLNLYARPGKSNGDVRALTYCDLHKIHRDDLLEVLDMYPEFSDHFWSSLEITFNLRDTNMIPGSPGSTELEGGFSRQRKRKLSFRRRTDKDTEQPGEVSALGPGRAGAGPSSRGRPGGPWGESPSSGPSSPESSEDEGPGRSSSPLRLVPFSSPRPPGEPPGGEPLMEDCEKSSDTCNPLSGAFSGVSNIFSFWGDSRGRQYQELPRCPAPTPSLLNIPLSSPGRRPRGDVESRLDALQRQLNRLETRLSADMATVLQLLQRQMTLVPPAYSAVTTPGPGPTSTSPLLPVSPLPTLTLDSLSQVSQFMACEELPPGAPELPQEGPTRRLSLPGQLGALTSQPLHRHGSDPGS

Compound | hERG current change (%, negative = inhibition) at 10uM
COc1cc(NC(=O)CCN2CCOCC2)cc(OC)c1 | 21.4%
CC(OC(=O)C1CCCCC1)C(=O)Nc1cccc([N+](=O)[O-])c1 (stereo not drawn) | -4.48%
COc1ccc(N(CC(=O)NCCC2=CCCCC2)S(=O)(=O)c2c(C)[nH]c(=O)[nH]c2=O)cc1 | 8.28%
CN(Cc1ccccc1)C(=O)c1[nH]cnc1C(=O)NCC(=O)OC(C)(C)C | 10.4%
COc1cccc(-n2nnnc2SCC(=O)Nc2nc3c(s2)CCCC3)c1 | 3.59%
COc1ccc2c(c1)CCC/C2=N\OC(=O)c1ccccc1F | 1.16%
COc1ccc(C2c3ccsc3CCN2C(C)=O)cc1 (stereo not drawn) | 3.26%
Nc1nc(CSc2nnc(-c3cccc(F)c3)n2-c2ccccc2)nc(N2CCOCC2)n1 | 11.5%
Cc1cc(C(=O)O/N=C(\N)c2ccncc2)ccc1[N+](=O)[O-] | -22.9%
NC(=O)CC(NC(=O)Cc1cccc2ccccc12)c1ccc(N2CCCCCCC2)c([N+](=O)[O-])c1 (stereo not drawn) | -2.7%
COc1ccc(F)cc1S(=O)(=O)n1nnc2ccccc21 | 3.56%
C=CCn1c(=N)c(C(=O)OCC)cc2c(=O)n3cccc(C)c3nc21 | -72.9%
Cc1cc(C(=O)Nc2ccc(N3CCOCC3)c3nonc23)ccc1[N+](=O)[O-] | -4.44%
Cc1nc2ccc(NC(=O)c3ccc(Br)o3)cc2s1 | 7.61%
CCOC(=O)c1[nH]c(C)c(C(=O)C(C)C)c1C | 9.78%
CC(C)NC(=O)N1CCN(c2ccncc2S(=O)(=O)N2CCOCC2)CC1 | -5.92%
CCn1c2ccccc2c2cc(NC(=O)c3cc(C)on3)ccc21 | 23%
CC(C)(C)NC(=O)C(c1ccccc1)N(C(=O)C1CSC(=O)C1)c1ccccc1 (stereo not drawn) | 3.97%
CCCCn1c(N)c(N(CC(C)C)C(=O)C2CSC3(C)CCC(=O)N23)c(=O)[nH]c1=O (stereo not drawn) | 24.9%
COc1ccc(S(=O)(=O)NC(C)C(=O)NCc2ccncc2)cc1Cl (stereo not drawn) | 8.04%
O=c1cc(O)c2c(=O)n(-c3ccccc3)c3ccccc3c2o1 | 4.59%
O=C(COC(=O)c1ccc(-c2ccc([N+](=O)[O-])cc2)o1)NC(=O)NC1CCCCC1 | 0.0678%

Compound | hERG current change (%, negative = inhibition) at 10uM
CCCN1Cc2cccc(C(=O)NCc3ccccc3OC)c2C1=O | -34.2%
Cc1cccc(-n2c(C)cc(/C=C3\NC(=O)NC3=O)c2C)c1 | 2.75%
CCCn1c(=O)c2ccccc2n2c(SCCOc3ccccc3F)nnc12 | -29.9%
CCCCn1c(N)c(N(CCOC)C(=O)c2ccc(-c3ccc([N+](=O)[O-])cc3)o2)c(=O)[nH]c1=O | -18%
COC(=O)c1ccccc1S(=O)(=O)Nc1ccc(OC)nc1 | -0.17%
COc1ccc(NC(=S)N(CCc2ccc(OC)c(OC)c2)Cc2ccccn2)cc1 | -32.6%
CCOC(=O)CNc1c(-c2ccc(O)cc2)nc2ccccn12 | -39.3%
CCOc1ccc(CCNC(=O)C2CCN(c3ccc(N4CCOCC4)nn3)CC2)cc1OCC | -1.75%
NC(=O)C1CCN(C(=O)CCSc2ccccc2)CC1 | 1.11%
Cc1ccccc1NC(=O)CCl | -1.22%
OCCC1CN(Cc2cccc3nonc23)CCN1Cc1ccsc1 (stereo not drawn) | -52.6%
COc1ccc(N2CCN(C(c3cccs3)C(C)NC(=O)C(=O)N3CCOCC3)CC2)cc1 (stereo not drawn) | 5.49%
Nc1ncnc2c1ncn2C1CCCO1 (stereo not drawn) | 7.09%
FC(F)(F)C12CC(c3ccccc3)=NCCN1CCN2 (stereo not drawn) | 13.1%
Cc1nc(-c2nnc(SCC(=O)Nc3ccc(C(F)(F)F)cc3)n2C)cs1 | -13.6%
Cc1nc(SCC(=O)N2CCCc3ccccc32)c2oc3ccccc3c2n1 | 2.01%
CC(O)C(=O)O.COc1ccc(CN(CC(O)COc2cccc3[nH]cc(C)c23)C(C)(C)C)cc1 (stereo not drawn) | -60.6%
Cc1cccc(-n2ncc3c2CCCC3NC(=O)CCc2cccnc2)c1C (stereo not drawn) | 25.3%
COc1ccc(CCN2C(=O)NC(NS(=O)(=O)c3ccc(Cl)cc3)(C(F)(F)F)C2=O)cc1OC (stereo not drawn) | 14.2%
Cc1ccc(-c2ccccc2NC(=O)CS(=O)CC(=O)Nc2ccc(C)c(Cl)c2)o1 (stereo not drawn) | 0.484%
O=c1oc2c3c4c(cc2c2c1CCC2)OCCN4CCC3 | -0.13%
Cc1nc(Nc2cccc(C(C)O)c2)c2nnn(Cc3ccc(F)cc3)c2n1 (stereo not drawn) | 5.08%

Compound | hERG current change (%, negative = inhibition) at 10uM
Clc1ccc2nc(-c3ccc4c(c3)OCO4)cn2c1 | 16.2%
O=S1(=O)N=C(N(CCO)/N=C/c2ccc(Cl)cc2)c2ccccc21 | 4.3%
O=C(CCc1nc2ccccc2[nH]c1=O)OCc1ccc(S(=O)(=O)N2CCOCC2)cc1 | -4.49%
CCC(CC)c1nnc(NC(=O)C2CC(=O)N(CCc3ccc(F)cc3)C2)s1 (stereo not drawn) | 0.832%
Nc1nc(-c2cccnc2)nn1C(=O)COc1ccccc1 | 5.7%
Cc1ccc(NN=Nc2nc3c([nH]2)c(=O)n(C)c(=O)n3C)cc1 | 5.51%
CCc1cc(=O)oc2cc(C)cc(OC(C)C(=O)NCCCN3CCOCC3)c12 (stereo not drawn) | 1.67%
Cc1ccccc1Nc1nc(NCc2ccco2)c2ccccc2n1.Cl | -63.6%
CCOc1cc(S(=O)(=O)Nc2ccncc2)ccc1F | 12.8%
CN(Cc1ccccc1)C(=O)COc1ccc2ccccc2c1 | 2.59%
COc1ccc(-c2oc(NC(=O)CSc3nncn3C)c(C#N)c2-c2ccc(OC)cc2)cc1 | 8.67%
Cc1ccc(S(=O)(=O)/N=C2/NC(=O)/C(=C/c3ccccn3)S2)cc1 | -10.1%
COc1ccccc1OCC(=O)Nc1nonc1NC(=O)COc1ccccc1OC | 6.65%
O=C(c1cccc(C(=O)N2CCN(c3ccccc3)CC2)c1)N1CCN(c2ccccc2)CC1 | -41.7%
O=[N+]([O-])c1nn(-c2ccc3c(c2)OCCO3)n(O)c1=Nc1ccccc1 | -1.76%
C=CC[C@@]12C=C(OC)C(=O)C(OC)=C1O[C@H](c1ccc3c(c1)OCO3)[C@H]2C | 10.7%
CCCc1nnc(SCC(=O)NC2CC2)n1C | 12.6%
COc1ccc(NC(=O)c2ccc([N+](=O)[O-])cc2[N+](=O)[O-])c(OC)c1 | 9.82%
Cc1cc(S(=O)(=O)N2CCN(Cc3ccccc3)CC2)c(C)s1.Cl | -21.8%
CC1=NN(CCC#N)C(=O)/C1=C/c1ccc(N(C)C)cc1 | 23.1%
N/C(=N\OC(=O)COc1ccc(Cl)cc1Br)c1cccnc1 | -8.3%
O=CNc1ccc(OP(=O)(Oc2ccccc2)Oc2ccccc2)cc1 | -61.7%

Compound | hERG current change (%, negative = inhibition) at 10uM
O=C(CCS(=O)(=O)c1ccc2c(c1)NC(=O)CS2)NCCc1ccccc1 | 8.31%
OCCC1CN(Cc2ccsc2)CCN1C1CCCC1 (stereo not drawn) | -9.06%
Nc1nc(SCC(=O)Nc2ccccc2-c2ccccc2)n[nH]1 | -1.48%
NNC(=O)/C(=N/Nc1ccccc1)S(=O)(=O)c1ccc(Cl)cc1 | -8.15%
COc1ccc(/C(=C\Nc2ccc(C)c(C)c2)C(C)=O)cc1OC | -0.0535%
CC(=O)OCC1=C(C(=O)O)N2C(=O)C(NC(=O)CC(C)c3ccccc3)C2SC1 (stereo not drawn) | -0.761%
Cc1ccc(Nc2nc(N)nc(CN3CCN(C)CC3)n2)cc1 | -27.8%
O=C(N/N=C/c1cccc(C(F)(F)F)c1)c1ccccc1O | 10.4%
COC(Cn1c(-c2cccc(S(=O)(=O)N(C)C)c2)n[nH]c1=S)OC | 15.7%
Cn1c2c(c(=O)n(C)c1=O)C(c1ccc(Br)cc1)Nc1ccccc1O2 (stereo not drawn) | -19.4%
Cn1cc(Cl)c(C(=O)Nc2nc3ccc(Cl)cc3s2)n1 | -14%
NNC(=O)COc1ccc(C(F)(F)F)cc1 | 15.6%
COCC(=O)n1nc(-c2ccccc2)nc1NCc1ccc(F)cc1 | -10.6%
CC(C)c1ccc2oc(=O)cc(CN3CCN(c4ccc(F)cc4)CC3)c2c1 | -2.26%
CCCn1c(SCC(=O)Nc2cccc(C(=O)OC)c2)nnc1-c1cccnc1 | -42%
CCOC(=O)c1nnc(-c2ccc(C)cc2)nc1Sc1cccc(Cl)c1 | -10.2%
COc1ccccc1NC(=O)Nc1nnc(CC(=O)Nc2ccccc2C)s1 | 24.9%
O=C(NCc1ccco1)/C(=C\c1cccs1)NC(=O)c1ccccc1 | 3.5%
CCOC(=O)c1ccc2c(c1)n(Cc1ccccc1)c(C)[n+]2CC.[O-][Cl+3]([O-])([O-])[O-] | -7.56%
O=C(Cc1ccccc1)N/N=C/c1ccc2cccc(O)c2n1 | -0.649%
O=C1SCCC1NS(=O)(=O)c1ccccc1[N+](=O)[O-] (stereo not drawn) | 2.12%
